Reference: publication PMC4336329 (PLoS ONE, 2015)
Hit rate of the full screen: of about 310,000 compounds, about 2,200 (0.71%) showed an effect of 50% or more. The effect is printed as a negative number. The list shows a part of the results.

What follows are molecules tested against human ether-à-go-go-related gene (hERG) potassium channel (human, UniProt Q12809) (assay: primary screen, population patch clamp on CHO cells stably expressing hERG).
Sequence of human ether-à-go-go-related gene (hERG) potassium channel (Q12809 whole entry, looked up): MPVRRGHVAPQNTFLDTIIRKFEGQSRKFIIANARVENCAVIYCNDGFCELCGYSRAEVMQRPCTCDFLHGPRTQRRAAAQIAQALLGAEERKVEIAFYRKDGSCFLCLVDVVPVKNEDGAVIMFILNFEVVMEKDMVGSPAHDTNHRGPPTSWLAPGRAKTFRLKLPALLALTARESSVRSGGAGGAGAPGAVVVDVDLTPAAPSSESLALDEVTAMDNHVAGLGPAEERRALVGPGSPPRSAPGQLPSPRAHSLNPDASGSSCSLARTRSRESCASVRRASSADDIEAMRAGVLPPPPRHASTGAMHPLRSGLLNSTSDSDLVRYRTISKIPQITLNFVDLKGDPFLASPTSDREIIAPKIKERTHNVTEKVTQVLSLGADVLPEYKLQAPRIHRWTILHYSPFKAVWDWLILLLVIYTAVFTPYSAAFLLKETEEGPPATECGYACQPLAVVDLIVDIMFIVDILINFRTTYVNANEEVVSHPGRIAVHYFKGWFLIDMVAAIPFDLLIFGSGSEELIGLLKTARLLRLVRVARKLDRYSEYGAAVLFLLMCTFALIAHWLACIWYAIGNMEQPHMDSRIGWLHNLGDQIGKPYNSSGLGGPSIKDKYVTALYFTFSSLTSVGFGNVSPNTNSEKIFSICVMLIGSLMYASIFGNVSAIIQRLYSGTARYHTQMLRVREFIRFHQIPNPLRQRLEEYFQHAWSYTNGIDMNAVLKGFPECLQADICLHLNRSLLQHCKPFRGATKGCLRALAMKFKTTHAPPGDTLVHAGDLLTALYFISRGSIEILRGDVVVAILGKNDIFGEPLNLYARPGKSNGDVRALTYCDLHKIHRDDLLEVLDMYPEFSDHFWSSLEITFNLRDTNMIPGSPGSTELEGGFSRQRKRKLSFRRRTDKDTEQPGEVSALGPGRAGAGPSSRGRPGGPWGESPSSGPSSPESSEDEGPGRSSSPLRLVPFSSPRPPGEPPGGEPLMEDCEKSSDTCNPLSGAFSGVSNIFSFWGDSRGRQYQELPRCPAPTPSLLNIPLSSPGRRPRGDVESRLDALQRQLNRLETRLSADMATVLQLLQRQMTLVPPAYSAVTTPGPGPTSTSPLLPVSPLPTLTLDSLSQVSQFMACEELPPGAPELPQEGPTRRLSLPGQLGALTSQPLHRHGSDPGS

Row | Structure (SMILES) | hERG current change (%, negative = inhibition) at 1uM
1 | COc1ccc(Cl)cc1-n1c(=S)sc2c(=O)[nH]c(SCC(=O)C(C)(C)C)nc21 | 16.6%
2 | CCCn1cnc2c(N)c(C)c(C)cc21 | 20.3%
3 | O=S1(=O)CCN2C(c3ccc4c(c3)CCCC4)=CSC2=N1 | 7.63%
4 | Cc1ccc([N+](=O)[O-])cc1NC(=O)CN(C(=O)c1ccccc1Cl)C1CCCCC1 | 8.05%
5 | O=C(CCS(=O)(=O)c1ccccc1)N1CCN(c2ccccc2)CC1 | 13%
6 | COc1cc(NC(=O)CS(=O)(=O)c2ccc(C)cc2)cc(OC)c1OC | 6.95%
7 | CCCc1ccc2oc(C(=O)N3CCC(C(N)=O)(N4CCCCC4)CC3)c(C)c2c1 | -1.55%
8 | O=C(c1cccs1)N(CC1CCCO1)c1nc(-c2ccccc2)cs1 (centres unmarked) | 11.8%
9 | C=CCN(C(=O)CNC(=O)c1ccco1)C(C(=O)NC1CCCC1)c1ccc(OC)cc1 (centres unmarked) | 17.9%
10 | COCCNC(=O)CCC(=O)NNc1nc2ccccc2c2nc(C)nn12 | 7.86%
11 | O=C(O)C(Oc1ccc2c(-c3ccccc3)cc(=O)oc2c1)c1ccccc1 (centres unmarked) | 9.07%
12 | CCCCOC(=O)Nc1nccs1 | 25.2%
13 | O=C1c2cccc(Sc3ccccc3)c2C(=O)c2c(Sc3ccccc3)cccc21 | 10.6%
14 | CC1(C)Oc2ccc(C(=O)N3CCc4ccccc43)cc2N(CC(=O)N2CCCC2)C1=O | 7.47%
15 | CCN(c1ccccc1)S(=O)(=O)c1ccc(Cl)c(C(=O)NCCc2ccc(OC)cc2)c1 | 4.71%
16 | Cc1cc(C)n(CCNS(=O)(=O)c2ccc(Cl)cc2)n1 | -3.7%
17 | O=C(N/N=C/c1cccs1)C(=O)Nc1cccc(Cl)c1 | 15.1%
18 | Cc1cc2c(=O)n(C)c(SCC(=O)Nc3ccccc3)nc2s1 | 12.8%
19 | CCc1c(C)[nH]c2nc3ccccc3n2c1=O | 6.81%
20 | CCN(CC)c1ccc(NC(=O)Cn2cc3c(n2)CCC(C)C3)c(C)c1 (centres unmarked) | 4.09%
21 | CC(=O)OC1COC(n2ccc3cc([N+](=O)[O-])ccc32)C(OC(C)=O)C1OC(C)=O (centres unmarked) | 0.733%
22 | CN(CCO)C(=O)c1ccc(-c2nn(C)c(=O)c3ccccc23)cc1 | 6.22%

Row | Structure (SMILES) | hERG current change (%, negative = inhibition) at 1uM
23 | COC(=O)c1sccc1NC(=O)c1ccc(OC)c([N+](=O)[O-])c1 | 7.04%
24 | COc1ccc(/C(C)=N/NC(=O)CNC(=O)C(c2ccccc2)c2ccccc2)c(OC)c1 | 13.6%
25 | Cc1ccc2nc(-c3ccc(NC(=O)c4cccnc4)cc3)oc2c1 | 12.8%
26 | COc1ccc(CNC(=O)N[C@H](C(=O)O)C(C)C)cc1OC | 9.96%
27 | O=C1NC2(Nc3ccccc31)C(=O)Nc1ccccc12 (centres unmarked) | 16.7%
28 | Cc1ccc(OCC(=O)N2CCC(C)CC2)c([N+](=O)[O-])n1 | 6.04%
29 | C=CCN1C(=O)c2ccc(C(=O)Nc3ccccn3)cc2C1=O | 10.7%
30 | CSc1ccccc1NC(=O)c1cc(-c2ccco2)on1 | 12.1%
31 | COc1ccccc1CC(=O)Nc1cccc2c1CCCC2 | 1.25%
32 | C/C(=N\NC(=O)CN1CCN(Cc2ccccc2)CC1)c1ccncc1 | -3.1%
33 | COc1ccc2oc(C(=O)OC(C)C(=O)N(C)c3ccccc3)c(C)c2c1 (centres unmarked) | 2.56%
34 | CC(OC(=O)c1ccc(Cl)nc1)C(=O)NC1(C#N)CCCCC1 (centres unmarked) | 0.802%
35 | CCOC(=O)CN(c1ccccn1)S(=O)(=O)c1ccccc1 | -7.75%
36 | Cc1cc(C(=O)CSc2nc(N)cc(=O)[nH]2)ccc1F | 17.6%
37 | N#CN(CC(N)=O)c1nc(N2CCCCC2)nc(N2CCCCC2)n1 | 16%
38 | O=C(c1cccn(Cc2ccc(C(F)(F)F)cc2)c1=O)N1CCOCC1 | 13.8%
39 | CN(C)c1ccc(NC(=O)CCCc2ccccc2)cc1 | 4.45%
40 | O=C(Cc1cccs1)NCc1cccc(Br)c1 | 9.45%
41 | C[C@@]12CCC=C[C@H]1[C@H](c1ccc3ccccc3c1/C=C/c1ccccc1)N(Cc1ccccc1)C2=O | 1.03%
42 | O=C(Nc1cccc(F)c1)Nc1cccc(Cl)c1 | 12.3%
43 | CCNC(=O)CCc1nc(-c2ccc(C(C)(C)C)cc2)no1 | -13.4%
44 | Cc1cc(C)nc(N2CCCC(C(=O)NCCc3ccc(F)cc3)C2)n1 (centres unmarked) | 2.46%
